# Screen size: about 360,000 compounds; about 25,000 (6.9%) were called active. The shares of active, inactive and inconclusive entries below differ from those in the screen. Calls come from the whole dose curve; as a rule, active = well fitted inhibition curve with a large enough effect; inconclusive = small, poorly fitted or top-dose-only effect; inactive = flat fitted curve, though single readings scatter. Where the call is inconclusive, the potency comes from a doubtful curve fit.
# Molecular target: Luciferin 4-monooxygenase (Photinus pyralis) (UniProt P08659)
# Chain of UniProt P08659 (P08659 whole entry, looked up): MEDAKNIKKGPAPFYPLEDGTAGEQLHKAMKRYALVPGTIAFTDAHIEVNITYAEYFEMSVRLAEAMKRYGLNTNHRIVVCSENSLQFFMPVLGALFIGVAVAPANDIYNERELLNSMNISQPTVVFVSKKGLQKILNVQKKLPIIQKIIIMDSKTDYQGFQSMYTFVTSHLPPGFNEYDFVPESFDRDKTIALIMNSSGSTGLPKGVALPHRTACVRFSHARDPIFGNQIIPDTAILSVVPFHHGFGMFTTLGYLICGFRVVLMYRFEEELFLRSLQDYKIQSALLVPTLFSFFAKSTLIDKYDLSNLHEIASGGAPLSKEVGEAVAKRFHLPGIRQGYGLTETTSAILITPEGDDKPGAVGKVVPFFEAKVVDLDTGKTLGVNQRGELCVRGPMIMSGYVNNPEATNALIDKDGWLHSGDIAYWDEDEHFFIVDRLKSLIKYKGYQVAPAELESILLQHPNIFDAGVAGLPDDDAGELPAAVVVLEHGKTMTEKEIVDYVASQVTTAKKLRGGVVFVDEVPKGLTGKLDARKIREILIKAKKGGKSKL
# Assay: qHTS profiling assay for firefly luciferase inhibitor/activator using purifed enzyme and Km concentrations of substrates (counterscreen for miR-21 project); note: nearly all actives have a fitted effect of over 55% in size;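 for activity change, negative = inhibition: plate controls were vehicle for no effect and reference inhibitor for full effect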
# Details: purified FLuc, luminescence inhibition; series mostly up to 57.5 µM; activity change, negative = inhibition: at the top concentration
# Outline: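 Purified P. pyralis luciferase, 10 nM final, with Km-level 10 uM D-luciferin and 10 uM ATP in 50 mM Tris acetate pH 7.5, 10 mM Mg acetate, 0.01% Tween-20, 0.05% BSA; 6-point qHTS titration about 60 µM downward; luminescence read.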
# Potency is the fitted concentration of half-maximal effect; tags give direction and shape of the fitted curve.
SMILES,Potency,"activity change, negative = inhibition"
Cc1cc(F)ccc1S(=O)(=O)Nc1ccc2c(c1)CCCN2C(=O)c1cccs1,"inconclusive: 33.8 µM [inhibitor, partial curve, poor fit]",–
Cc1ccc(Nc2c(N)c(=O)oc3ccccc23)cc1,"inconclusive: 23.9 µM [inhibitor, partial curve, poor fit]",–
Cc1ccc(-c2cc3nn(-c4ccccc4)c(N)c3c(=O)o2)cc1,active: 6.01 µM,–
COc1cc(SC)ccc1C(=O)Nc1ccc(C)cc1C,active: 2.69 µM,–
Nc1c(C(=O)N2CCCC2)sc2nc3c(cc12)CCCCCC3,"inconclusive: 2.69 µM [inhibitor, full curve]",–
COc1cc(/C=N/NC(=O)c2ccc(Cl)cc2)ccc1OCC(=O)N1CC(C)OC(C)C1 (configuration not stated),"inconclusive: 19 µM [inhibitor, partial curve]",–
O=C(Nc1nnc(-c2cccc(F)c2)s1)Nc1ccccc1F,"inconclusive: 0.0169 µM [inhibitor, partial curve, poor fit]",–
COc1ccc(C2CC(c3cccs3)=NN2C(=O)CN2CCCCC2)cc1 (configuration not stated),"inconclusive: 37.9 µM [inhibitor, partial curve, poor fit]",–
CSc1ccc(OC2CCN(Cc3ccccc3)CC2)cc1,"inconclusive: 26.9 µM [inhibitor, partial curve, poor fit]",–
CC(C)CCNC(=O)c1ccc2c(c1)NC(=O)C(CS(=O)(=O)Cc1ccc(F)cc1)N2 (configuration not stated),–,inactive: -3.44%
COc1ccc(C(C(=O)NCc2ccccc2)N(C(=O)Cn2nnc3ccccc32)c2cccc(OC)c2)cc1 (configuration not stated),–,inactive: 1.12%
Cc1cccc(C(C)Nc2ccc([N+](=O)[O-])cn2)c1 (configuration not stated),–,inactive: -9.66%
CC(C)CC(=O)OCc1cn(-c2ccccc2)nn1,"inconclusive: 26.9 µM [inhibitor, single point]",–
CN1C(=CC=C2C=C(I)C(=O)C(I)=C2)C(C)(C)c2ccccc21,active: 21.3 µM,–
Cc1cc(-c2ccc(C)c(S(=O)(=O)NC(c3cccs3)C(C)C)c2)on1 (configuration not stated),–,inactive: -13.4%
COc1ccccc1C1=NOC(C)(c2sc(-c3ccc(Cl)cc3)nc2C)C1 (configuration not stated),"inconclusive: 21.3 µM [inhibitor, single point]",–
Clc1ccc(NCc2ccsc2)cc1,"inconclusive: 21.3 µM [inhibitor, partial curve]",–
CCOC(=O)Nc1nnc(CCc2ccccc2)s1,–,inactive: -1.52%
c1ccc(SCCN2CCc3ccccc3C2)cc1,"inconclusive: 21.3 µM [inhibitor, partial curve, poor fit]",–
Cc1ccc(C(=O)NC(=S)NNC(=O)CC#N)cc1,"inconclusive: 37.9 µM [inhibitor, partial curve, poor fit]",–
COc1ccccc1N1CCN(/N=C/c2cccc(OC)c2O)CC1,active: 7.57 µM,–
NC(=O)c1cc2c(s1)-c1cc(Cl)ccc1SC2,"inconclusive: 15.1 µM [inhibitor, partial curve, poor fit]",–
O=C(/C=C/c1ccc(F)cc1)NC(=S)NNC(=O)c1cccnc1,"inconclusive: 23.9 µM [inhibitor, single point]",–
COc1ccc(C(CC(=O)c2ccc(C)cc2)C(C#N)C#N)cc1OC (configuration not stated),–,inactive: -2.05%

SMILES,Potency,"activity change, negative = inhibition"
CN(CC(=O)Nc1cccc(F)c1)C(=O)c1cccc2ccccc12,"inconclusive: 33.8 µM [inhibitor, partial curve, poor fit]",–
CCN(CC)c1ccc(C(=S)NC2CCCCC2)cc1,active: 15.1 µM,–
COc1ccc(OC)c(C2Nc3c(Cl)ccc(C(=O)O)c3C3C=CCC32)c1 (configuration not stated),"inconclusive: 23.9 µM [inhibitor, partial curve, poor fit]",–
COc1ccc(S(=O)(=O)Nc2cccc(-c3ccc(N4CCC(C)CC4)nn3)c2)cc1OC,active: 0.426 µM,–
O=C(N/N=C/c1ccccn1)c1cc(Br)ccc1O,active: 15.1 µM,–
CCc1noc(C)c1C(=O)NC1CCCc2c1cnn2-c1ccc(C(C)(C)C)cc1 (configuration not stated),–,inactive: 1.13%
O=Nc1ccc(NOC(=O)c2ccccc2)cc1,active: 0.0953 µM,–
Cc1ccc(CNC(=O)COCc2cc(-c3cccs3)on2)cc1,"inconclusive: 21.3 µM [inhibitor, partial curve, poor fit]",–
COc1ccc(C(=O)Nc2nc3nc(C)c(Cc4ccccc4)c(=O)n3[nH]2)cc1OC,"inconclusive: 10.7 µM [inhibitor, partial curve]",–
COc1ccc(C2CC(c3ccccc3)=NN2C(=O)COC(=O)/C=C/c2ccc(O)c(OC)c2)cc1 (configuration not stated),–,inactive: -3.62%
CCCc1cc(=O)n2[nH]c(NC(=O)c3ccc(C(C)(C)C)cc3)nc2n1,"inconclusive: 9.53 µM [inhibitor, partial curve]",–
Brc1ccc2[nH]c3c(NCc4ccccn4)ncnc3c2c1,"inconclusive: 26.9 µM [inhibitor, single point]",–
CC(C)c1ccc(S(=O)(=O)c2nnn3c2nc(N2CCN(C)CC2)c2sccc23)cc1,–,inactive: 5.51%
CC1CCN(C(=O)CSc2ccc(-c3ccc4c(c3)OCCO4)nn2)CC1,active: 10.7 µM,–
CC(=O)c1cccc(NC(=O)c2nc3ccccc3n(C)c2=O)c1,active: 3.79 µM,–
O=C(Nc1cccc(S(=O)(=O)N2CCCCC2)c1)c1ccc2ccccc2n1,"inconclusive: 21.3 µM [inhibitor, partial curve, poor fit]",–
COC(=O)c1cn(C(=O)c2cccc(C)c2)c2ccccc12,–,inactive: -6.37%
O=C(NCC1CCCO1)c1cc(-c2ccc(F)cc2)no1 (configuration not stated),"inconclusive: 37.9 µM [inhibitor, partial curve, poor fit]",–
COc1ccc(OCC(=O)NCCc2c[nH]c3ccccc23)cc1,–,inactive: 1.24%
COc1cccc2cc(-c3nc(Nc4cccc(C)c4)sc3C)c(=O)oc12,"inconclusive: 9.53 µM [inhibitor, partial curve, poor fit]",–
COc1cc(/C=N/NC(=O)c2cc(C)oc2C)ccc1O,"inconclusive: 37.9 µM [inhibitor, partial curve, poor fit]",–
Cc1c(CCC(=O)NCC(=O)NCC(=O)O)c(=O)oc2cc3oc4c(c3cc12)CCCC4,active: 21.3 µM,–
Clc1ccsc1-c1csc(-c2cccnc2)n1,active: 10.7 µM,–

# Source: PubChem BioAssay AID588342 (National Center for Advancing Translational Sciences (NCATS), 2011)
